Values joined by “and” are separate entries in the source; they are usually repeats but may differ in a detail not shown here. Equal entries are not always repeated. The whole screen tested about 420,000 compounds, of which about 50,000 (12%) were called active. This list was built around the results that the source calls inconclusive (neither active nor inactive); the mix of calls is not that of the screen. Calls come from the whole dose curve; as a rule, active = well fitted inhibition curve with a large enough effect; inconclusive = small, poorly fitted or top-dose-only effect; inactive = flat fitted curve, though single readings scatter. Potencies of inconclusive entries are left out as doubtful fits.
Test: qHTS for Inhibitors of human tyrosyl-DNA phosphodiesterase 1 (TDP1): qHTS in cells in presence of CPT; note: nearly all actives have a fitted effect of over 55% in size
Details: chicken DT40 Tdp1-/-;hTDP1 cells + 20 nM CPT, ATP luminescence, 48 h; activity change, negative = growth inhibition: at 46.2 µM (top of the series)
Summary of the method: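 Chicken DT40 Tdp1-/- cells stably complemented with human TDP1 were seeded at 400 cells/well in medium containing 20 nM camptothecin, exposed to pin-transferred compounds, and grown at 37 °C for at least 48 hr. Viability was read as ATP luminescence.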
% is set by controls: 0 for no effect and ±100 for the full control effect; potency is the fitted concentration of half-maximal effect; tags give direction and shape of the fitted curve.

Row | SMILES | Potency | activity change, negative = growth inhibition
1 | Cc1cc(C)c(SSc2nnnn2-c2ccccc2)c(C)c1 | inconclusive [inhibitor, single point] | –
2 | COc1ccc(NC(=O)Nc2c(C)noc2-c2ccccc2)cc1 | inconclusive [inhibitor, single point] | –
3 | CCOC(=O)C1=CCN(S(=O)(=O)c2ccc(C)cc2)C1c1ccccc1F (stereo unspecified) | inconclusive [inhibitor, single point] | –
4 | Cc1csc(NC(=O)c2cccs2)n1 | – | inactive: -14.5%
5 | CCCNc1nc(N2CCCC2)nc(N2CCCC2)n1 | inconclusive [inhibitor, single point] | –
6 | CCCS(=O)(=O)N1CCN(Cc2c[nH]c3ccccc23)CC1 | inconclusive [inhibitor, single point] | –
7 | CCOc1ccc(CC(=O)NNC(=S)NC)cc1 | – | inactive: 9.48%
8 | CSc1ccc(CCNC(=O)c2ccc(-n3c(C)cc4c3CCCC4)cc2)cc1 | active: 20.6 µM | –
9 | CC1CCCCN1S(=O)(=O)c1ccc(C(=O)Nc2nnc(C3CC3)o2)cc1 (stereo unspecified) | active: 16.4 µM | –
10 | CCCCCCN1CC(=O)N2Cc3[nH]c4ccccc4c3C[C@H]2C1=O | – | inactive: -29.2%
11 | COc1ccc(CN(C2CC2)S(=O)(=O)c2ccccc2Br)cc1 | inconclusive [inhibitor, single point] | –
12 | Cc1nc(Cl)sc1C(=O)Nc1ccc(C(F)(F)F)cc1 | – | inactive: -21.5%
13 | Cc1ccc(OCc2nc3ccccc3n2Cc2ccccc2Cl)cc1 | active: 20.6 µM | –
14 | CCOc1ccc(NC(=S)Nc2ccccc2C2CC2)cc1 | active: 5.8 µM | –
15 | Cc1ccc(NC(=O)[C@H](Cc2c[nH]c3ccccc23)NC(=O)[C@@H]2Cc3ccccc3CN2)c(C)c1 | inconclusive [inhibitor, single point] | –
16 | O=C(Nc1ccccc1N1CCCC1)C1CCN(C(=O)c2ccc(Cl)cc2)CC1 | inconclusive [inhibitor, single point] | –
17 | O=C(NCc1cccnc1)c1cnn(-c2ncc3c(n2)-c2ccccc2CCC3)c1C1CC1 | – | inactive: -16.3% [at 9.04 µM]
18 | CCOc1cc(NC(=S)NCc2ccco2)c(OCC)cc1NC(=O)C1CC1 | – | inactive: -14.7%
19 | COc1ccc(NC(=O)c2ccc(COc3ccccc3OC)o2)cc1OC | active: 23.1 µM and active: 14.6 µM | –
20 | COc1ccc(NC(=O)C2Cc3ccccc3O/C2=N\O)cc1 (stereo unspecified) | – | inactive: 9.22%
21 | CC1CCc2c(ccc3ccccc23)C1=O (stereo unspecified) | – | inactive: -1.88%
22 | Cc1ccc(NC(=O)CN(C)S(=O)(=O)c2cccc3nsnc23)cc1C | – | inactive: -26.7%
23 | Cc1cccc(CNc2ccnc(-c3cccc(C#N)c3)n2)c1 | inconclusive [inhibitor, partial curve, poor fit] | –
24 | ClC(Cl)(c1nnnn1-c1ccccc1)c1nnnn1-c1ccccc1 | active: 1.3 µM | –
25 | Cc1cccc(-n2nnnc2S(C)(=O)=O)c1 | active: 1.16 µM | –
26 | O=C(Cc1ccccc1)Nc1c(C(=O)Nc2ccccc2F)oc2ccccc12 | inconclusive [inhibitor, partial curve] | –

Row | SMILES | Potency | activity change, negative = growth inhibition
27 | Cc1ccc2c(c1)N(CCCC(=O)NCCC1=CCCCC1)C(=O)CO2 | inconclusive [inhibitor, partial curve] | –
28 | N=c1oc2ccc(Br)cc2cc1C(=O)NCc1ccc(F)cc1 | inconclusive [inhibitor, single point] | –
29 | O=C(NC1CCCC1)C(c1ccccc1)n1c(-c2ccc3c(c2)CCO3)nc2ccccc21 (stereo unspecified) | inconclusive [inhibitor, single point] | –
30 | Cc1cc(=O)oc2cc(NC(=O)C(C)Oc3cccc(Cl)c3)ccc12 (stereo unspecified) | inconclusive [inhibitor, single point] | –
31 | C(=N\Nc1nc2ccccc2[nH]1)/c1ccccc1 | inconclusive [inhibitor, single point] | –
32 | Nc1ccccc1N=c1ssnc1Cl | inconclusive [inhibitor, single point] | –
33 | Fc1ccc2cnc(-c3ccccc3)c(-c3ccc(C(F)(F)F)cc3)c2c1 | inconclusive [inhibitor, single point] | –
34 | O=C(NCCCn1ccnc1)c1cc(-c2cccs2)on1 | active: 4.61 µM | –
35 | CCN(CC(=O)Nc1ccc2c(c1)OCCO2)c1nc(-c2cccnc2)nc2ccccc12 | – | inconclusive: -34.2% [inhibitor]
36 | COc1ccc(-c2cc3nc(-c4ccccc4)cc(N4CCN(C(C)=O)CC4)n3n2)cc1 | – | inactive: 1.1%
37 | Cc1ccc(-c2cc(Cc3ccc(N(C)C)cc3)c(=O)[nH]n2)cc1 | – | inconclusive: -31.2% [inhibitor]
38 | O=C1c2ccccc2C(=O)c2c1ncn2-c1ccccc1 | active: 5.8 µM | –
39 | CC(=O)N1CCCc2cc(S(=O)(=O)N(C)CC(=O)Nc3ccc(Cl)cc3C)ccc21 | active: 23.1 µM | –
40 | CCCc1cc(C(=O)Nc2cccc(-c3nn[nH]n3)c2)sc1C | – | inactive: -5.25%
41 | CCn1c(C)cc(/C=C2/NC(=O)N(c3ccccc3)C2=O)c1C | inconclusive [inhibitor, single point] | –
42 | CCc1noc(C)c1C(=O)Nc1cccc(S(=O)(=O)N(C)c2ccccc2)c1 | inconclusive [inhibitor, partial curve] | –
43 | Cc1cc(C(=O)NC2CC(C)(C)Cc3c2cnn3-c2ccc(F)cc2)nn1C (stereo unspecified) | inconclusive [inhibitor, single point] | –
44 | COc1ccc(OC)c(-c2csc(NC(=O)Cc3ccc(F)cc3)n2)c1 | – | inactive: -0.802%
45 | CC(C)CC(CC(C)C)=NNC(=O)c1ccc2c(c1)OCO2 | – | inactive: 2.4%
46 | CS(=O)(=O)NC1CCN(Cc2ccccc2)CC1 | – | inactive: 1.57%
47 | c1ccc2c(c1)cnc1ccccc12 | inactive | –
48 | COc1ccc2cc(C3CC(c4cccs4)=NN3S(C)(=O)=O)c(Cl)nc2c1 (stereo unspecified) | active: 16.4 µM | –
49 | Cc1ccc(-c2noc(CCC(=O)NC3CCCc4ccccc43)n2)cc1 (stereo unspecified) | active: 9.2 µM | –
50 | CCCC(NC(C)C(=O)N1C(C(=O)O)CC2CCCCC21)C(=O)OCC (stereo unspecified) | – | inactive: 10.2%
51 | COc1ccc2nc(NC(=O)CSCc3c(C)noc3C)sc2c1 | inconclusive [inhibitor, partial curve] | –
52 | Cc1nc(-c2coc3cc(O)c(C)cc3c2=O)cs1 | – | inactive: -26.5%

Row | SMILES | Potency | activity change, negative = growth inhibition
53 | Nc1nc(-c2ccco2)c(-c2ccco2)s1 | – | inactive: -29.7%
54 | COC(=O)[C@]12CCCCC=C1N(Cc1ccco1)C(=O)[C@H](CC(=O)NCc1ccccc1)C2 | – | inactive: -23%
55 | CCOC(=O)c1c(NC(NC(C)=O)C(Cl)(Cl)Cl)sc(C(C)=O)c1C (stereo unspecified) | inconclusive [inhibitor, single point] | –
56 | Cc1ccc(N2CC(C(=O)N3CCC(C(=O)Nc4ccc(Br)cc4)CC3)CC2=O)cc1 (stereo unspecified) | inconclusive [inhibitor, partial curve] | –
57 | Cc1ccc(CC(=O)NCc2ccc(F)cc2)cc1 | active: 4.11 µM | –
58 | FC(F)(F)c1ccccc1-c1nc(N2CCNCC2)c2ccccc2n1 | inconclusive [inhibitor, full curve, poor fit] | –
59 | CCCN(CCC)C(=O)C1CCN(c2ncnc3c2nc2n3CCCCC2)CC1 | inconclusive [inhibitor, single point] | –
60 | Cc1cc(OCC(=O)NC(Cc2ccc(Cl)cc2)C(=O)O)c2c(C)cc(=O)oc2c1 (stereo unspecified) | – | inactive: -2.54%
61 | CN1C(=O)[C@H]2[C@@H](C3CC3)N3C(=O)CN(Cc4ccccc4)C(=O)[C@@]3(C)[C@H]2C1=O | – | inactive: 28.2%
62 | COc1ccc2c(c1)CCc1c(C(=O)Nc3c(C)nn(Cc4ccc(C)cc4)c3C)noc1-2 | active: 10.3 µM | –
63 | Cc1cccc(N(C)C(=O)c2cc(S(=O)(=O)N3CCc4ccccc43)cn2C)c1 | inconclusive [inhibitor, single point] | –
64 | Cc1ccc(C)c(NC(=O)c2cc(S(=O)(=O)NCCC3=CCCCC3)ccc2F)c1 | inconclusive [inhibitor, single point] | –
65 | O=C(CN1CCN(c2ccccn2)CC1)N1c2ccccc2CCc2ccccc21 | inconclusive [inhibitor, single point] | –
66 | O=c1c(S(=O)(=O)c2ccccc2)cn(Cc2ccc(F)cc2)c2cc(N3CCCCC3)c(F)cc12 | inconclusive [inhibitor, single point] | –
67 | COc1cccc(C(=O)Nc2ccncc2)c1OC | inconclusive [inhibitor, single point] | –
68 | CC(C)(C)n1nc2c(c1NC(=O)COc1ccc(Cl)cc1)CS(=O)(=O)C2 | – | inactive: 4.46%
69 | O=C(N/N=C/c1ccc(Br)o1)c1cc([N+](=O)[O-])cc([N+](=O)[O-])c1 | inconclusive [inhibitor, single point] | –
70 | CNC(=S)N(CCc1cccc(C)c1)Cc1cc2cc(OC)c(OC)cc2[nH]c1=O | – | inactive: -1.85%
71 | CN(C)c1ccc(C=C2C=C(c3ccccc3)OC2=O)cc1 | active: 18.4 µM | –
72 | COC(=O)c1sccc1NC(=O)CSc1ccccc1NS(=O)(=O)c1ccccc1Cl | inconclusive [inhibitor, single point] | –
73 | CC1(OC(=O)CCc2ccccc2)C(=O)C=C2C=C(c3ccc(C#N)cc3)N(CCc3c[nH]c4ccccc34)C=C2C1=O (stereo unspecified) | inconclusive [inhibitor, single point] | –
74 | COc1cc(/C=N/N2CCCCC2)cc(OC)c1O | active: 18.4 µM | –
75 | Cc1ccc(-c2onc(C)c2C)cc1S(=O)(=O)NC1CCCCC1 | inconclusive [inhibitor, single point] | –
76 | O=c1c(-c2c(O)cc(O)c3c2O[C@H](c2ccc(O)cc2)CC3)c(-c2ccc(O)cc2)oc2cc(O)cc(O)c12 | inconclusive [inhibitor, single point] | –

Source: PubChem BioAssay AID686979 (National Center for Advancing Translational Sciences (NCATS), 2013)
